From PMC4336329 (PLoS ONE, 2015)
Screen size: about 310,000 compounds; about 2,200 (0.71%) showed an effect of 50% or more. Effects have a minus sign here. The list shows a part of the results.

These compounds were tested against human ether-à-go-go-related gene (hERG) potassium channel (human, UniProt Q12809) (assay: primary screen, population patch clamp on CHO cells stably expressing hERG).
Sequence of human ether-à-go-go-related gene (hERG) potassium channel (Q12809 whole entry, looked up): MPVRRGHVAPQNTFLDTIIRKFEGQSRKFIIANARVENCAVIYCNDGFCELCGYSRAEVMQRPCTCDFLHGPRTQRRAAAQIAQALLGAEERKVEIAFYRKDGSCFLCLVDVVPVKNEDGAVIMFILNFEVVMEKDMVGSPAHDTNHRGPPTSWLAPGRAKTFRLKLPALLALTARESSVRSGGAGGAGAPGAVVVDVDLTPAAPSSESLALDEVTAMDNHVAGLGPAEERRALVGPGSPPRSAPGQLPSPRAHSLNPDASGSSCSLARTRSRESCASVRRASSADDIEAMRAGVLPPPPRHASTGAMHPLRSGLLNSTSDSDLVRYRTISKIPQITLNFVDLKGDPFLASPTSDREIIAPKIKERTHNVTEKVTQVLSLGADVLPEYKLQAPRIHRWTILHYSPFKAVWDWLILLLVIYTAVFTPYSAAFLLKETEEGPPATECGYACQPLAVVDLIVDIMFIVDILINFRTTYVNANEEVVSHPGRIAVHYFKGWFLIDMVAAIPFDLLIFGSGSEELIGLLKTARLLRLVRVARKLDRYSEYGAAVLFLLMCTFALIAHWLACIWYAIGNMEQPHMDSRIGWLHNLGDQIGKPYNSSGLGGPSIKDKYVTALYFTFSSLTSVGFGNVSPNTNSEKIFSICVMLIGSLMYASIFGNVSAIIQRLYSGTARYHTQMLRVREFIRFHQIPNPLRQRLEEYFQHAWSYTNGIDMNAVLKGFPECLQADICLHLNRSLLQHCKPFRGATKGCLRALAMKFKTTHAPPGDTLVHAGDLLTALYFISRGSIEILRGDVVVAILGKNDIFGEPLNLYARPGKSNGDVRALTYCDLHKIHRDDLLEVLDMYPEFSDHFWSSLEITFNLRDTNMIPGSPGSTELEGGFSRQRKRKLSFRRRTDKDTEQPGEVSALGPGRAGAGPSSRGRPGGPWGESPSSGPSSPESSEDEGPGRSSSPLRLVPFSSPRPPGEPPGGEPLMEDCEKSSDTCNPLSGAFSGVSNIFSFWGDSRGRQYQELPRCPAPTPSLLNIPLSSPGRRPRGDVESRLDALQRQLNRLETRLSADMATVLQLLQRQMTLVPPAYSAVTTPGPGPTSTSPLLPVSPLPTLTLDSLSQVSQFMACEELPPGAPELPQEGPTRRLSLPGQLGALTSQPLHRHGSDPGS

Structure (SMILES) | hERG current change (%, negative = inhibition) at 1uM [%]
O=C(O)COc1ccc(/C=N/NC(=O)COc2nsnc2N2CCOCC2)cc1 | 13.5
CCOc1cc2[nH]c(=S)n(CCCC(=O)NCc3ccco3)c(=O)c2cc1OCC | -0.751
COc1ccc(C(=O)Nn2c(C3CCC3)nc3ccccc3c2=O)c(OC)c1 | 0.925
CCN(CC)CCNC(=O)c1cc2ccccc2nc1Cl | 22.8
Cc1cc(C(=O)N/N=C/c2sc(N3CCOCC3)nc2-c2ccccc2)c(C)o1 | 13.4
FC(F)(F)c1cc(Oc2ccccc2)nc(-c2ccccn2)n1 | -4.27
COc1ccc(-c2cc(C(=O)N3CCN(Cc4ccc5c(c4)OCO5)CC3)on2)cc1OC | 10.4
COc1ccc2oc(C)c(C(=O)Cn3ccnc3)c2c1 | -15
COc1ccc(CCN(Cc2cccs2)S(=O)(=O)c2ccc(S(=O)(=O)N(C)C3CCCCC3)cc2)cc1OC | 10.9
COc1ccc(C(=O)NC2CCCc3c2cnn3-c2ccccc2F)cc1OC (stereo not drawn) | 7.97
CC1(c2nnc(Cc3ccccc3)o2)CC(c2ccccc2[N+](=O)[O-])=NO1 (stereo not drawn) | 0.886
CC1CCC(NC(=O)CCS(=O)(=O)c2ccc3c(c2)CC(C)N3C(=O)C2CC2)CC1 (stereo not drawn) | 19.5
COc1ccc(CCNC(=O)c2cc(Cl)nc3ccccc23)cc1 | 17.6
COc1ccc(S(=O)(=O)N2CCCN(Cc3cccc(F)c3)CC2)cc1 | 4.73
O=C1OC(Oc2ccccc2)(c2ccccc2)c2ccccc21 (stereo not drawn) | -12
NC(=O)C1CCN(C(=O)C23CC4CC(CC(C4)C2)C3)CC1 | 15.4
COCCNC(=O)Cn1cc(S(=O)(=O)N2CCN(c3ccccc3F)CC2)c2ccccc2c1=O | 5.24
CCc1ccc(C(C)NC(=S)NCc2ccc(F)cc2)cc1 (stereo not drawn) | 10.1
CCCN(CC(=O)Nc1ccccc1C)C(=O)COC(=O)CSc1ccc([N+](=O)[O-])cc1 | 11.9
CC(=O)c1cccc(S(=O)(=O)N2CCCC(c3nc4c(nnn4Cc4ccc(C)cc4)c(=O)[nH]3)C2)c1 (stereo not drawn) | 15.5
CC(C)c1ccc(NC(=O)C(c2ccccc2)N2CCC3(CC2)OCCO3)cc1 (stereo not drawn) | -11.7
CCc1ccc(-c2nc(CSCC(=O)NCCCN3CCCC3=O)c(C)o2)cc1 | -4.12
CC(=O)NN1C(=O)c2ccc(Oc3ccc([N+](=O)[O-])cc3)cc2C1=O | 0.938

Structure (SMILES) | hERG current change (%, negative = inhibition) at 1uM [%]
O=C(Nc1nc(-c2cccs2)c(C(=O)C(F)(F)F)s1)c1ccccc1 | 11.1
CC(C)(C)OC(=O)N[C@@H](Cc1ccccc1)C(=O)N[C@@H](CO)[C@H](O)[C@@H]1C[C@@H]1C(=O)N1CCCC1 | 16.3
C=CCNC(=O)C1CCC(=O)N1S(=O)(=O)c1ccc(C)cc1 (stereo not drawn) | 20
Cc1nnc(SCCN2CCOCC2)n1-c1cccc(Cl)c1.O=C(O)C(=O)O | -0.94
O=C(CCNC(=O)OCc1ccccc1)NC1CCCCC1 | 11
O=S(=O)([N-]c1nc2ccccc2nc1-[n+]1ccccc1)c1ccccc1 | 15.3
COc1ccc(N/N=C/c2c(C(=O)O)ccc3ccccc23)cc1 | 7.87
CCn1c2ccc(C)cc2c2nnc(NN)nc21 | 3.56
O=C1CSC(c2ccc(Cl)c(Cl)c2)N1c1nccs1 (stereo not drawn) | 13.7
CCOC(=O)N/N=C\c1sccc1C | 5.04
Cc1ccc(C(=O)N/N=C\c2cc(Br)c(Br)o2)cn1 | 13.2
FC(F)(F)c1cc(-c2ccco2)nc(NCc2cccnc2)n1 | 7.98
COc1ccc(OCc2nnc(SCC(N)=O)n2-c2ccccc2OC)cc1 | 3.69
Cl.O=C(O)c1ccc(Nc2ncnc3scc(-c4ccccc4)c23)cc1 | 20.4
O=C(CCNC(=O)c1ccccc1)Nc1nc2ccccc2s1 | 4.88
Cc1cccc(C)c1NC(=O)CNC(=O)c1cccnc1 | 11.3
O=C(N/N=C/c1ccc2c(c1)OCO2)c1cccc2ccccc12 | 9.57
Cc1ccc(C(=O)N2CCOCC2)cc1Cl | 10.2
COc1ccc(CN(C)C2CCN(C)CC2)cc1OC | 17.1
O=C(CC1CCCCC1)NCC1CCCO1 (stereo not drawn) | -1.45
C(#Cc1ccc(C#CCN2CCOCC2)cc1)CN1CCOCC1 | 1.28
Oc1c(N=NC(=S)Nc2ccccc2F)c2ccccc2n1Cc1ccccc1F | 11.9
